Tested on: pDCs
Test: Planned: IFNA expression in pDCs from healthy donors and COVID-19 subjects cultured with TCA inhibitors
Conditions: UK5099 at 10, 20, and 40 μM, CB839 at 0.5 μM

Row | SMILES | IFNA expression in cultured pDCs
1 | O=C(O)CCCCC(CCSCc1ccccc1)SCc1ccccc1 (stereo not drawn) [CPI-613, 6,8-bis-benzylthio-octanoic acid] | expected to reduce
2 | O=C(Cc1cccc(OC(F)(F)F)c1)Nc1ccc(CCCCc2nnc(NC(=O)Cc3ccccn3)s2)nn1 [CB839] | expected to reduce
3 | N#C/C(=C\c1cn(-c2ccccc2)c2ccccc12)C(=O)O [UK5099] | expected to reduce

— patent US20250009779A1 (priority 2021, published 2025)
